Test results reported in PubChem BioAssay AID1645882 (National Center for Advancing Translational Sciences (NCATS), 2021).
Screen size: about 16,000 compounds; about 120 (0.75%) were called active. Roughly 4% stayed inconclusive and do not appear here. The call rests on the fitted dose curve; in most records, active means well fitted inhibition curve with a large enough effect; inconclusive means small, poorly fitted or top-dose-only effect; inactive means no such curve, though single readings can be large or run the other way. This is one part of the list.

Each compound was assayed against Rap guanine nucleotide exchange factor 3 (Homo sapiens) (UniProt O95398) (assay: Validation qHTS for antagonist of cAMP-regulated guanine nucleotide exchange factor 3 (EPAC1)). Conditions: EPAC1 Rap1B-BODIPY-GDP exchange, fluorescence; series mostly up to 150 µM; activity change, negative = inhibition: at the top concentration.
Summary of the method: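 EPAC1 (100 nM) mixed with 250 nM RAP1B-BODIPY-GDP and 50 uM GDP; compounds in concentration series, 5 min at room temperature. Fluorescence (ex 480/em 540 nm) read every 5 min for 30 min; normalized to ATA control and DMSO.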
Further: nearly all actives have a fitted effect of over 75% in size.
Potency means the concentration at half of the fitted maximal effect.
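Wherever activity change, negative = inhibition is given: plate controls were DMSO for no effect and ATA control for full effect.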

Sequence of UniProt O95398 (O95398 whole entry, looked up): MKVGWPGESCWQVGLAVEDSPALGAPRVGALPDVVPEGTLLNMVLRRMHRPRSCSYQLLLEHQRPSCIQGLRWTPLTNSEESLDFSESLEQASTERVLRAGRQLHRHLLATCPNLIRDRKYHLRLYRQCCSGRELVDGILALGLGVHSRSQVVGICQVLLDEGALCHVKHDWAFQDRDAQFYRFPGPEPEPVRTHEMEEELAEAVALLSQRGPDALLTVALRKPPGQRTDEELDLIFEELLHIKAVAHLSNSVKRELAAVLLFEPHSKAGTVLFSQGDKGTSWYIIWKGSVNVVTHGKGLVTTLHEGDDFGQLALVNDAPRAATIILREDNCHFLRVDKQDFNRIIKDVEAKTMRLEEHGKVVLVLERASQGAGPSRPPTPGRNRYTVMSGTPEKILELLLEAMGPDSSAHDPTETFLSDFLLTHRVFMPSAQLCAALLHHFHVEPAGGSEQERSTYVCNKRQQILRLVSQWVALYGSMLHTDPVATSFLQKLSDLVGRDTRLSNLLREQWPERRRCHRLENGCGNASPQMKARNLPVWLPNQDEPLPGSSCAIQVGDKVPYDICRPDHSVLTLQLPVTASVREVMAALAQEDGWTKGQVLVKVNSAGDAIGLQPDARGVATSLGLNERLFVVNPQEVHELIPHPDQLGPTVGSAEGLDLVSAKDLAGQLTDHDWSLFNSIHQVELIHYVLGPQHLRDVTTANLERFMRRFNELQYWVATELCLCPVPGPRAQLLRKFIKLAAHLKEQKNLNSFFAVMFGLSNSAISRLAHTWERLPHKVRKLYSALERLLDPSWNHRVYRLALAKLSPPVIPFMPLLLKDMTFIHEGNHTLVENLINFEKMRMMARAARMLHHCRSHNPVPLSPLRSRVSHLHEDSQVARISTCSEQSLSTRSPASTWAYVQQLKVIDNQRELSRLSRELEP

Activity change, negative = inhibition, inactive:
CCN(CC)CCCC(C)Nc1cc(/C=C/c2ccccc2Cl)nc2cc(Cl)ccc12 (centres undefined) 12.6%, CC(=O)c1ccc(F)c(-c2cc(C)cc3c2OC(CNC(=O)Cc2ccc4c(c2)OCO4)C3)c1 (centres undefined) -11.6%, CC(C)c1c(C(=O)N(C)CC2CCCN(C)C2)cnn1-c1nccc(-c2cccs2)n1 (centres undefined) -3.06%, Nc1ncnc2[nH]c(=O)[nH]c12 11.4%, Cc1cccc(C)c1OCC(C)N (centres undefined), CCOC(=O)Nc1ccc2c(c1)N(C(=O)CN(C)C)c1ccccc1CC2 0.972% [at 320 µM], CCOc1ccc2nc(N3CCCC3C(=O)N3CCC(c4nc5ccccc5o4)CC3)nc(C)c2c1 (centres undefined) -3.08%, CN(Cc1ccco1)c1nc(-c2ccc3c(c2)OCO3)nc2ccccc12 -8.59%, COc1ccccc1N1CCN(CCCCN2C(=O)c3ccccc3C2=O)CC1, Cc1cnc(CNc2cc(-c3ccc(C(=O)N(C)C)cc3)ncn2)cn1 9.46%, Cn1cccc1C(=O)N1CCC2(CC1)CCN(c1cccc(-c3ccccc3)c1)CC2 5.38%, COc1ncc2ncc(=O)n(Cc3ccc(F)cc3)c2n1 14.1%, Clc1cccc(C=NC=Nc2cccc(Cl)c2)c1 -12%, COc1cc(C2c3cc4c(cc3C(O)[C@H]3COC(=O)C23)OCO4)cc(OC)c1OC (some centres undefined), Cc1cc(=O)[nH]c(=S)[nH]1 10.8%, COc1ccc(-c2nc3cc(C)ccc3cc2CN(C(=O)c2ccco2)C2CC2)cc1OC 19%, COc1ccc(OC)c(/C=C/c2nc3ccccc3nc2C)c1 6.16%, CCCCCCCCCC(=O)NO, COc1ncc2nc(CCc3ccccc3)c(=O)n(-c3ccccc3)c2n1 -10.7%, NC[C@@H]1O[C@H](O[C@H]2[C@@H](O)[C@H](O[C@@H]3[C@@H](O)[C@H](N)C[C@H](N)[C@H]3O[C@H]3O[C@H](CO)[C@@H](O)[C@H](O)[C@H]3N)O[C@@H]2CO)[C@H](N)[C@@H](O)[C@@H]1O 9.75%, CN1C(=O)CC(CC(=O)N2CCCCC2CCO)(c2cccc(F)c2)C1=O (centres undefined) 10.2%, CC[C@]1(O)C[C@H]2CN(CCc3c([nH]c4ccccc34)[C@@](C(=O)OC)(c3cc4c(cc3OC)N(C=O)[C@H]3[C@@](O)(C(=O)OC)[C@H](OC(C)=O)[C@]5(CC)C=CCN6CC[C@]43[C@@H]65)C2)C1 10.5%, O=c1c(-c2ccc(Cl)cc2)nc2cnc(N3CCOCC3)nc2n1CCc1ccccc1 11.1%, COc1cc(C)c2c(c1C=O)Oc1c(c(C)c(O)c3c1C(O)OC3=O)OC2=O (centres undefined) -12.9%, COc1ccccc1C1CN(CCNC(=O)c2ccccc2Cl)Cc2ccccc2O1 (centres undefined) 18.5%, N[C@H](Cc1cnc[nH]1)C(=O)O, CNc1ncncc1-c1ccccc1C(F)(F)F 14.6%, COc1ccccc1OCC(O)CO (centres undefined), CCCCCc1ccc(-c2cn(Cc3ccc(C)cc3)nn2)cc1 7.13%, CCNc1ncc2nc(-c3ccccc3)c(=O)n(Cc3cccs3)c2n1 2.72%, C[C@@]12CCC(O)C[C@H]1CCc1ccccc12 (some centres undefined) 7.7%, Cc1ccc2[nH]c3c(c2c1)CN(C(=O)CC1(c2ccccc2)CC(=O)N(Cc2cccnc2)C1=O)CC3 (centres undefined) 2.52%, COC(=O)C1C(O)CC[C@@H]2CN3CCc4c([nH]c5ccccc45)C3C[C@@H]12 (some centres undefined), COc1cccc2c1C(=O)c1c(O)c3c(c(O)c1C2=O)C[C@@](O)(C(C)=O)C[C@@H]3O[C@H]1C[C@H](N)[C@H](O)[C@H](C)O1, CCN1CCN(C(=O)N[C@@H](C(=O)N[C@@H]2C(=O)N3[C@@H]2SC(C)(C)[C@H]3C(=O)O)c2ccccc2)C(=O)C1=O -13%, CNC(=O)c1cc(Oc2ccc(NC(=O)Nc3ccc(Cl)c(C(F)(F)F)c3)cc2)ccn1 -8.93%, COc1ccc(C2CC(=O)c3c(O)cc(O[C@H]4OC(COC5OC(C)C(O)C(O)[C@@H]5O)C(O)C(O)C4O)cc3O2)cc1O (some centres undefined) -9.86%, CN(C)C(=O)c1ccc(-c2ccc3ncnc(Nc4ccc(F)cc4)c3c2)cc1 0.359%, CC(=O)OC1CC[C@]2(C)C(CC[C@@]3(C)C2C(=O)C=C2C4C(C)C(C)CC[C@@]4(C(=O)O)CCC23C)C1(C)C (some centres undefined) 16.6%, O=C(CN1C(=O)c2ccccc2C1=O)NCC1Cc2cccc(-c3ncccn3)c2O1 (centres undefined) 2.78%, Cn1nccc1C(=O)NCC1CCC2(CCN(Cc3c(O)ccc4ccccc34)CC2)O1 (centres undefined) 8.24%, C[C@]12C=CC(=O)C=C1CCC1C2C(=O)C[C@]2(C)C1CC[C@]2(O)C(=O)CO (some centres undefined) 17.2%, Cc1ccnc2c(Cl)cccc12 15.2%, COc1ccc2c(c1)OC(C)CN(CCNC(=O)c1cc3cc(F)ccc3[nH]1)C2 (centres undefined) -9.54%, CC(C)(C)c1ccc(C(=O)N2CCC3(CC2)CC3C(=O)NCCc2ccccn2)cc1 (centres undefined) -4.57%, CCNc1ncc2nc(-c3ccc(OC)cc3)c(=O)n(CCc3ccccc3)c2n1 15%

Potency, active:
CC1(COc2ccc(C[C@H]3SC(=O)NC3=O)cc2)CCCCC1 89.1 µM, O=C(Nc1cccc(C(=O)Nc2ccc(S(=O)(=O)O)c3cc(S(=O)(=O)O)cc(S(=O)(=O)O)c23)c1)Nc1cccc(C(=O)Nc2ccc(S(=O)(=O)O)c3cc(S(=O)(=O)O)cc(S(=O)(=O)O)c23)c1 25.1 µM, Nc1ncnc2c1nc(Br)n2[C@@H]1O[C@H]2COP(=O)(O)O[C@@H]2[C@@H]1O 2.82 µM
